Measured values taken from PubChem BioAssay AID1347073 (National Center for Advancing Translational Sciences (NCATS), 2019).
Hit rate of the full screen: of about 45,000 compounds, about 200 (0.44%) were called active. Another 7% or so got no clear call; they are omitted. Calls come from the whole dose curve; as a rule, active = well fitted activation curve with a large enough effect; inconclusive = small, poorly fitted or top-dose-only effect; inactive = no such curve, though single readings can be large or run the other way. The list shows a part of the results.

Assay: qHTS of TDP-43 Inhibitors: NCGC Sytravon Library Screen; note: 0% is about no effect; nearly all actives have a fitted effect of over 55% in size
Conditions: yeast TDP-43 toxicity rescue, BacTiter-Glo growth, 24 h; series mostly up to 46.1 µM; growth rescue (activation): at the top concentration
Source text: The goal of this project is to identify new chemical probes capable of reversing the toxicity associated with TDP-43 which is associated with frontotemporal lobar degeneration and amyotrophic lateral sclerosis. These compounds will provide a complementary approach to deciphering the tangled mechanisms of toxicity and protection that we have uncovered through genome-wide genetic screens and are beginning to uncover in a large-scale proteomics analysis with mass spectroscopy. To this end, a miniaturized assay was developed to be screened against the Molecular Libraries Small Molecule Repository (MLSMR) to discover TDP-43 inhibitors. Please note that in the set-up this yeast-based assay compounds that inhibit as TDP-43, have a read-out as activators. NIH Chemical Genomics Center [NCGC] NIH Molecular Libraries Probe Centers Network [MLPCN] Assay Submitter (PI): Susan Lindquist, Whitehead Institute/MIT MLPCN Grant: R21 NS060957
Dispense 2.5 microL yeast galactose medium per 1536-well plate, pin compound, dispense 2.5 microL TDP-43 expressing yeast in galactose medium at OD600=0.02 (pregrown in raffinose medium to mid-log phase) per well, incubate for 24 hr at 30 deg C, and cell growth will be measured using 5 microL of Bactiter/Glo reagent to entire plate and read using Luminescence Protocol in ViewLux.

SMILES	growth rescue (activation)
CC(C)Oc1ccc(Br)cc1C(=O)N/N=C/c1c[nH]c2ccccc12	inactive: 0.373%
CC(=C/c1ccccc1)/C=C1/SC(N2CCOCC2)=NC1=O	inactive: 13.5%
CCCC(=O)Nc1ccc(-c2ccc(NC(=O)CCC)cc2)cc1	inactive: 4.37%
O=C(COc1ccc2ccc(=O)oc2c1)N1CCc2ccccc21	inactive: 5.44%
O=C(Cn1ccc([N+](=O)[O-])n1)NCCc1c[nH]c2ccccc12	inactive: 8.64%
COc1ccc(CNS(=O)(=O)c2ccc(S(=O)(=O)NC3CC3)cc2)cc1	inactive: -27.5%
COc1ccc(-c2coc3cc(OC)cc(O)c3c2=O)cc1	inactive: 34%
Cc1ccc2c(COC(=O)c3ccccc3Cl)cc(=O)oc2c1	inactive: -17.4%
COc1ccc(C)cc1N(CC(=O)NC1CCCC1)C(=O)Cn1nnc(-c2ccc(C)o2)n1	inactive: -9.08%
CC(NC(=O)c1ccco1)C(=O)N1CCN(C(c2ccccc2)c2ccccc2)CC1 (stereo not drawn)	inactive: 12.5%
CC(C)C(NC(=O)c1ccc([N+](=O)[O-])cc1Cl)C(=O)N1CCCC1 (stereo not drawn)	inactive: 5.04%
O=C(c1cc(-c2ccc(O)cc2)on1)N1CCOCC1	inactive: 17.5%
COc1ccc(C2=CC(c3ccco3)n3ncnc3N2)cc1 (stereo not drawn)	inactive: 27.8%
O=C(Nc1nccs1)c1cc(Cl)ccc1[N+](=O)[O-]	inactive: 11.7%
CCOc1ccc(C(=O)NC(C)(C)CC)cc1	inactive: 10.5%
COc1ccc(CNC(=O)CC23CC4CC(CC(C4)C2)C3)cc1	inactive: 14.4%
O=C(N/N=C/c1ccccc1OC(F)F)c1cc(-c2ccncc2)nc2ccccc12	inactive: 12.2%
O=C(CCNS(=O)(=O)/C=C/c1ccccc1)NCCc1c[nH]c2ccccc12	inactive: 2.38%
O=C(c1ccc(Br)cc1)c1cn[nH]c1-c1ccccc1O	inactive: 2.22%
COc1ccc2[nH]c(N=Nc3ccccc3C)c(O)c2c1	inactive: 3.68%
Cc1cccc(/C=N/NC(=O)c2ccc(NC(=O)c3cccc(Cl)c3)cc2)n1	inactive: 8.76%
COc1cc(NC(=S)N2CCN(Cc3ccccc3)CC2)cc(OC)c1	inactive: 3.94%

SMILES	growth rescue (activation)
COc1cc(/C=N/NC(=O)c2ccc3nc[nH]c3c2)ccc1O	inactive: 18.6%
Cc1ccc(NC(=S)N2CCC(NC(=O)c3cccc(F)c3)CC2)cc1	inactive: 9.98%
NC(c1ccc(F)c(F)c1)c1nc(-c2cc(F)cc(F)c2)cs1 (stereo not drawn)	inactive: 7.55%
Cc1occc1-c1nnc(SCC(=O)NC2CCCC2)n1C	inactive: -5.79%
CCOC(=O)c1c(C)[nH]c(C)c1C(=O)CSc1nc2ccccc2n1CC	inactive: 24%
CCOc1ccc(S(=O)(=O)N(CC)CC)cc1N	inactive: -15.8%
CC(NC(=O)c1ccc(=O)oc1)c1ccccc1 (stereo not drawn)	inactive: 11.7%
Cc1ccc2nc(-c3ccc(C)c(NC(=O)Cc4ccccc4)c3)oc2c1	inactive: -8.65%
CCC[N+](C)(C)C(C)C(OC(C)=O)c1ccccc1 (stereo not drawn)	inactive: -5.34%
CSc1nc(Sc2cccc(Cl)c2)c2ccccc2n1	inactive: 14.9%
CCc1nc2ccc(C(=O)N(C)CC(=O)Nc3ccccc3C(F)(F)F)cc2nc1CC	inactive: 18.6%
COc1cc(OC)cc(C(=O)NCCCNC(=O)c2cccnc2)c1	inactive: -2.64%
Cc1ccc2[nH]c(=O)cc(C(=O)OC(C)C)c2c1	inactive: 7.02%
N#CC(=C(O)COC(=O)Cc1c[nH]c2ccccc12)c1nc2ccccc2[nH]1	inactive: 12.6%
COc1ccc(C(=O)Nc2ccc(C(=O)OCC(=O)c3cccc4ccccc34)cc2)cc1	inactive: 11.3%
CC(=O)OCc1c(-c2ccccc2)c2cc([N+](=O)[O-])ccc2n1C	inactive: 5.14%
O=C(/C=C/c1ccccc1)Nc1cc(S(=O)(=O)N2CCOCC2)ccc1N1CCCC1	inactive: -26.2%
CCc1nc2c(OCc3ccc(OC)cc3)cccn2c1N(C)C(=O)c1ccco1	inactive: 6.09%
COc1ccc(CN(C(=O)c2cccc(OC)c2)C2CCS(=O)(=O)C2)cc1 (stereo not drawn)	inactive: 2.53%
CN(Cc1ccccc1F)C(=O)CN1C(=O)NC2(CCc3ccccc32)C1=O (stereo not drawn)	inactive: 9.1%
CC(=O)Nc1cccc(C(=O)NNC(=O)c2ccc(-n3cnnn3)cc2)c1	inactive: 5.02%
CC(=O)NC1=NN(C(C)=O)C(C)(c2ccccn2)S1 (stereo not drawn)	inactive: -22.4%

SMILES	growth rescue (activation)
COCCN1CN(S(=O)(=O)c2ccccc2)c2nc3ccccc3nc21	inactive: 10.4%
CN(C)CCN(Cc1cc2cc3c(cc2nc1Cl)OCO3)C(=O)c1ccco1	inactive: -4.41%
Cc1nn(CC(=O)OCC(=O)c2ccccc2)c(C)c1[N+](=O)[O-]	inactive: 16.3%
OC(CN1CCN(Cc2ccccc2)CC1)Cn1c2ccccc2c2ccccc21 (stereo not drawn)	inactive: 0.488%
CCOC(=O)N1CCN(C(=O)C2CCCN(c3ncnc4c3sc3cccc(F)c34)C2)CC1 (stereo not drawn)	inactive: 17.2%
CCN(CC)S(=O)(=O)c1cccc(C(=O)/C=C2/N(C)c3ccccc3C2(C)C)c1	inactive: -1.64%
O=C(CC1C(=O)NCCN1Cc1ccc(Cl)c(F)c1)NC1CCCCC1 (stereo not drawn)	inactive: 4.3%
O=C(O)c1nn2c(C(F)(F)F)cc(-c3cccs3)nc2c1Cl	inactive: 11.8%
CC(C)OC(=O)/C(C#N)=C/c1cn(Cc2ccccc2)c2ccccc12	inactive: 14.4%
COc1ccc(/C=C(\C#N)C(=O)Nc2ccccn2)cc1	inactive: 0.592%
C=CCOc1c(Br)cc(CNc2ccc(NC(=O)C(C)C)c(OC)c2)cc1OCC	inactive: 16.9%
COc1ccc(OCC(=O)N2CCN(C(=O)c3cc(OC)c(OC)c(OC)c3)CC2)cc1	inactive: -2.79%
CCS(=O)(=O)N1Cc2ccccc2CC1C(=O)Nc1ccc(F)c(F)c1 (stereo not drawn)	inactive: -0.645%
CCCn1c(N)c(N2CCCCC2)c(=O)n(CC(=O)Nc2ccccc2C(F)(F)F)c1=O	inactive: -6.51%
CC1CCCC(C)N1C(=O)COC(=O)CCC(=O)c1cccs1 (stereo not drawn)	inactive: 5.49%
Cc1ccc(NC(=O)C2c3ccccc3Oc3ccccc32)nc1	inactive: -5.54%
Cc1csc(SC(C)C(=O)Nc2ccc(F)cc2Cl)n1 (stereo not drawn)	inactive: 35.4%
O=c1[nH]c(=O)n(Cc2ccccc2)c2nc(-c3ccc(Oc4ccc(F)cc4)c([N+](=O)[O-])c3)n(CCO)c12	inactive: 13.3%
CCS(=O)(=O)C1=NSC2=NC(=O)/C(=C\c3ccc(OS(=O)(=O)c4ccccc4)cc3)C(=N)N21	inactive: 3.43%
Cc1ccc(CNC(=O)CN(c2cccc([N+](=O)[O-])c2)S(=O)(=O)c2ccccc2)cc1	inactive: 17.5%
CCCCn1c(=N)n(CC(O)c2ccccc2)c2ccccc21 (stereo not drawn)	inactive: -2.61%
Cc1cccc(NC(=O)CSc2nnc(N)s2)c1	inactive: -2.95%

SMILES	growth rescue (activation)
NS(=O)(=O)c1ccc(N/N=C/c2ccccn2)c([N+](=O)[O-])c1	inactive: -1.36%
COc1ccc2[nH]c(C(=O)N3CCN(C)CC3)c(C)c2c1	inactive: -6.33%
Cc1ccc(C(=O)C2=C(O)C(=O)N(c3ncccn3)C2c2ccc(Br)cc2)o1 (stereo not drawn)	inactive: -14%
CC1CC1C(=O)OCC(=O)Nc1cccc(S(=O)(=O)NC2=NCCCCC2)c1 (stereo not drawn)	inactive: 28.7%
Cc1nnc(NC(=O)C(C)Sc2nnc(-c3ccco3)n2C)s1 (stereo not drawn)	inactive: 10.3%
CC(NC(=O)CN(C)S(=O)(=O)c1ccc(Br)s1)c1ccccc1 (stereo not drawn)	inactive: 11.5%
CCc1nc2ccc(C(=O)NCc3ccc(OC)cc3)cn2c1N(CC)Cc1cccc(Br)c1	inactive: -0.945%
O=C(COC(=O)c1ccc(Br)cc1)NCc1ccccc1	inactive: 14.8%
COCCn1c(=O)c2c(nc3n2CCCN3CCc2ccc(OC)c(OC)c2)n(C)c1=O	inactive: 2.88%
COc1ccc(S(=O)(=O)Nc2c(O)c3ccccc3oc2=O)cc1	inactive: -8.15%
COc1ccc(S(=O)(=O)Nc2cc(Sc3ncn[nH]3)c(O)cc2C)cc1	inactive: -12.6%
CC(=O)c1c(C)[nH]c(C(=O)OCC(=O)N(Cc2ccccc2)C(C)(C)C)c1C	inactive: 9.01%
CCCS(=O)(=O)N1CCCC(C(=O)NCC2CCCO2)C1 (stereo not drawn)	inactive: -10%
COc1cc(SC)ccc1C(=O)OCC(=O)NC1CCCC1	inactive: 26.1%
COCCCNC(NC(=O)c1ccc(Br)cc1)C(Cl)(Cl)Cl (stereo not drawn)	inactive: -4.39%
CN(C)CCCn1c(SCC(=O)N2c3ccccc3Sc3ccccc32)nc2ccccc2c1=O	inactive: -10.9%
CCc1nc2c(OCc3cccc(OC)c3)cccn2c1N(C)C(=O)C(C)C	inactive: 5.77%
COc1ccc2cc(C(C)C(=O)N3CCC(C(N)=O)CC3)ccc2c1 (stereo not drawn)	inactive: -3.18%
CC(=O)Nc1ccc(S(=O)(=O)Nc2cc(C)ccn2)cc1	inactive: 9.19%
Cc1ccc(OC(C)C(=O)N2CC(=O)Nc3ccccc32)cc1 (stereo not drawn)	inactive: 9.22%
CC(=O)N1CCc2cc(S(=O)(=O)NC3CCCCC3)ccc21	inactive: 2.32%
Cc1cc(=O)oc2cc(OCCCN3C(=O)c4ccccc4C3=O)ccc12	inactive: 16.2%

SMILES	growth rescue (activation)
CCN1CCSc2ccc(C(=O)NCc3cccc(F)c3)cc21	inactive: 16.4%
Cc1ccc(NC(=O)Cn2cnc3c(oc4nc5c(cc43)COC(C)(C)C5)c2=O)cc1	inactive: 10%
O=C1C2C(c3ccccc3)C=CC(c3ccccc3)C2C(=O)N1c1ccccn1 (stereo not drawn)	inactive: -4.8%
O=C(Nc1ccc(N2CCCCC2)cc1)c1cccnc1	inactive: 0.0556%
COc1ccc(C)cc1NC(=O)Cn1c(=O)oc2ccccc21	inactive: -9.59%
COc1cccc2c(SCC(=O)N/N=C/c3ccc(O)c(O)c3)cc(C)nc12	inactive: -9.95%
Cc1cccc(Nc2nc(-c3ccccc3)c3cc(C)ccc3n2)c1	inactive: 15.1%
C/C(CC(=O)NCc1ccco1)=N\NC(=O)Cc1cccc2ccccc12	inactive: 2.8%
CCN(CC)c1ccc(NC(=O)CN(C)Cc2cccs2)cc1	inactive: -23.3%
CCC(CC)C(=O)Nc1ccc([N+](=O)[O-])cn1	inactive: 19.6%
COc1ccccc1NC(=O)NN1CCCCC1	inactive: 6.9%
COc1ccc(C(=O)NCCCNC(=O)c2cnccn2)cc1	inactive: -7.68%
COc1cc2nc(CN(C)Cc3ccc(F)cc3)[nH]c(=O)c2cc1OC	inactive: 1.43%
O=C(Nc1ccc2c(c1)OCCO2)C(=O)NC1CC1	inactive: 4.3%
CN(C)C(=O)C[n+]1cccc(/C=N/O)c1	inactive: -7.67%
O=C(CN1C(=O)c2ccccc2C1=O)Nc1ccc(S(=O)(=O)N2CCOCC2)cc1	inactive: 14.9%
CCCCN(CCCC)CC(O)Cn1c2ccccc2c(=O)c2ccccc21 (stereo not drawn)	inactive: -1.37%
O=C(O)c1cn(CCOc2ccccc2Cl)c2ccccc12	inactive: 3.64%
O=C(O)CCCN1C(=O)c2ccc(Oc3cccc([N+](=O)[O-])c3)cc2C1=O	inactive: 12.4%
CCN(Cc1ccccc1)c1ccc(/C=N/N2CCOCC2)cc1	inactive: 7.83%
